# Laboratory results reported in PubChem BioAssay AID1347417 (National Center for Advancing Translational Sciences (NCATS), 2020).
# Where “and” joins values, the source holds several entries; their conditions need not be identical. Equal entries are not always repeated. Out of some 120,000 compounds screened, about 5,300 (4.4%) were called active. The inconclusive results got no clear call from the source; some entries with a clear call stand among them for comparison. The call rests on the fitted dose curve; in most records, active means well fitted inhibition curve with a large enough effect; inconclusive means small, poorly fitted or top-dose-only effect; inactive means no such curve, though single readings can be large or run the other way. Where the call is inconclusive, the potency comes from a doubtful curve fit.
# Assay: qHTS Primary assay for Inhibitors of Plasmodium falciparum Dd2 growth in vitro; further: nearly all actives have a fitted effect of over 65% in size;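 on activity, negative = inhibition: plate controls were DMSO vehicle for no effect and reference drug for full effect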
# Details: P. falciparum Dd2 growth, SYBR Green, 72 h; activity, negative = inhibition: at 28.9 µM (top of the series) unless noted; series mostly up to 28.9 µM
# Outline: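 Readout: SYBR Green fluorescence, 485 nm excitation, 535 nm emission, after ~16 h lysis at 37C. Before that, Dd2-infected red cells (2.5% hematocrit) grew 72 h with compound, 29 uM top final concentration.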
# Potency means the concentration at half of the fitted maximal effect; tags describe the fitted curve by direction and shape.
SMILES,"activity, negative = inhibition",Potency,outcome
O=C(NCc1cccnc1Oc1ccc(F)cc1F)c1cc(C2CC2)[nH]n1,inactive: -18.2%,–,–
COc1cccc(-c2cnc([C@@H]3COCCN3Cc3ccccc3)[nH]2)c1,–,active: 11.2 µM,–
Cc1ccc(Cn2c(SCc3ccc(C(=O)O)cc3)nc3cccnc32)cc1,–,"inconclusive: 12.6 µM [inhibitor, single point]",–
Cc1cccc(CN2CCCCC23Cc2ccccc2CNC3=O)n1 (centres undefined),–,active: 10 µM,–
COc1cccc(CC(=O)Nc2c(C(=O)N3CCN(c4ccccc4)CC3)oc3ccccc23)c1,–,"inconclusive: 11.2 µM [inhibitor, partial curve, poor fit]",–
COc1cc(F)ccc1-c1nc(N2CCOCC2)cc2c1CN(CC1CC1)C2=O,–,"inconclusive: 11.2 µM [inhibitor, partial curve, poor fit]",–
CNC(=O)CCn1ncc2cc(OC3CCc4cccc(-c5ccccc5F)c43)ccc21 (centres undefined),–,"inconclusive: 2.51 µM [inhibitor, partial curve, poor fit]",–
CCNC(=O)N1C[C@@H](Oc2ccccc2)C[C@H]1C(=O)N1CCOCC1,inactive: 1.92%,–,–
CC(=O)Nc1ccc(S(=O)(=O)N2CCC(n3c(C)nc4cccnc43)CC2)cc1,–,"inconclusive: 0.0316 µM [inhibitor, full curve, poor fit]",–
CC1=C(C(=O)NCc2cccc(Cl)c2)C2(CCCCCC2)OC1=O,–,"inconclusive: 20 µM [inhibitor, single point]",–
CN(C)C[C@@H]1CN(Cc2ccccc2)C[C@H]1NC(=O)c1c(F)cccc1F,–,"inconclusive: 3.98 µM [inhibitor, single point]",–
COc1cc(Cl)ccc1C(=O)N[C@@H]1CN(S(C)(=O)=O)C[C@H]1CN(C)C,–,"inconclusive: 5.62 µM [inhibitor, partial curve, poor fit]",–
COc1cc(-c2nc3cc4[nH]c(=O)[nH]c4cc3[nH]2)cc(OC)c1O,–,"inconclusive: 11.2 µM [inhibitor, single point]",–
COc1cc(C(=O)Nc2ccc(-c3nc4cc(C)c(C)cc4o3)cc2)cc(OC)c1OC,–,"inconclusive: 2.24 µM [inhibitor, full curve, poor fit]",–
O=C1CCN(S(=O)(=O)c2ccccc2)CCCN(S(=O)(=O)c2cccs2)CCN1,–,"inconclusive: 17.8 µM [inhibitor, single point]",–
O=C(c1ccccn1)N1CCC2(CC1)C(=O)Nc1ccccc12,inactive: 90.5%,–,–
Cc1nn(-c2ccccc2)c(-n2cccc2)c1C(=O)NCCCN1CCN(c2ccccc2F)CC1,–,"inconclusive: 8.91 µM [inhibitor, single point]",–
CNC(=O)CCn1ncc2cc(OCc3ccccc3-c3cccc(OC)c3F)ccc21,–,"inconclusive: 10 µM [inhibitor, partial curve, poor fit]",–
Cn1nc(-c2ccc3ccccc3c2)cc1[C@H]1CN2CC[C@H]1C[C@@H]2CNC(=O)c1ccco1,–,"inconclusive: 12.6 µM [inhibitor, partial curve, poor fit]",–
CCCCNC(=O)Cc1csc2nc(C)c(-c3cc(C)n(-c4cccc(C)c4C)n3)c(=O)n12,inactive: -3.88%,–,–
CCOc1ccc(NC(=O)Cn2cc(C(=O)C3CC3)c3ccccc32)cc1,inactive: 4.62%,–,–
COC(=O)c1ccc(NC(=O)Cn2nc3n(c2=O)CCCC3)cc1,–,–,inactive

SMILES,"activity, negative = inhibition",Potency,outcome
Cc1ccc2c(CNCCc3ccco3)c(C(=O)O)n(Cc3ccc(F)cc3)c2c1,–,"inconclusive: 15.8 µM [inhibitor, single point]",–
CCn1nccc1C(=O)N1CCC(N2CC(OCCOC)C23CCCCC3)CC1 (centres undefined),–,"inconclusive: 20 µM [inhibitor, single point]",–
CCOc1ccc(CN(CCc2ccc3c(c2)OCO3)Cc2cc(OC)cc(OC)c2)cc1,–,"inconclusive: 14.1 µM [inhibitor, single point]",–
O=C(C1CCCCC1)N(Cc1cccnc1)c1nc2ccc(Cl)cc2s1,–,active: 3.16 µM,–
CCN(C(=O)CSc1nc(-c2ccc(C(C)C)cc2)no1)c1ccccc1,–,active: 1.12 µM,–
O=C(NCc1ccccc1)N1CCC(N2C(=O)C3(CCCC3)C2c2ccccc2)CC1 (centres undefined),–,"inconclusive: 10 µM [inhibitor, single point]",–
O=C(Cc1ccc(Cl)cc1)N1CC(c2nnc(-c3ccncc3)o2)C2(CCOCC2)C1 (centres undefined),–,–,inactive
COc1ccccc1N1CCN(S(=O)(=O)c2ccc(-c3coc(C)n3)cc2)CC1,inactive: 41.1%,–,–
C[S+](=O)([O-])CCn1ncc2cc(OCc3cccc(-c4ccccc4F)c3)ccc21,inactive: -5.15% [at 44.1 µM],–,–
COc1cc(CNCC2CCOCC2)ccc1OCC(O)CN(C)C1CCCCC1 (centres undefined),–,active: 12.6 µM,–
O=[N+]([O-])c1cccc(-c2ncc[nH]2)c1,inactive: -12.4% [at 76.6 µM],–,–
COCCn1nc2n(c1=O)CCN(C(=O)c1ccc(OC)nc1OC)CC2,inactive: 54.3%,–,–
COc1cccc(-c2nn3c(=O)cc(CN4CCN(C(=O)COc5ccccc5C)CC4)nc3s2)c1,–,active: 11.2 µM,–
C[S+](=O)([O-])N1Cc2ccccc2CC2(CCN(Cc3cccnc3)C2)C1 (centres undefined),–,"inconclusive: 10 µM [inhibitor, single point]",–
O=C(Cn1c(=O)n(Cc2ccco2)c(=O)c2ccccc21)Nc1cccc(F)c1,–,"inconclusive: 11.2 µM [inhibitor, partial curve, poor fit]",–
CC(=O)N1C[C@@H](CN(C)C)[C@H](NC(=O)c2ccccc2OC(F)(F)F)C1,inactive: 12.4%,–,–
COC(=O)[C@H](Cc1ccc(OC)cc1)NC(=O)[C@H]1CN(C(=O)c2ccc(N(C)C)cc2)CCN1C(=O)c1cccs1,–,active: 0.141 µM,–
CN(C)c1ccc(-c2noc([C@@H]3CCCN3Cc3cnc4ccccc4c3)n2)cn1,–,"inconclusive: 4.47 µM [inhibitor, partial curve, poor fit]",–
CCOc1cccc(CNC(=O)CCC2CCCN(S(=O)(=O)c3ccc(C)cc3)C2)c1 (centres undefined),–,"inconclusive: 17.8 µM [inhibitor, single point]",–
COc1cncc(Nc2ncc(-c3ccccc3)c3c2OCC3)c1,–,"inconclusive: 31.6 µM [inhibitor, single point]",–
CC1(NC(=O)C2CC2)CN(Cc2nc(-c3ccc(Oc4ccccc4)cc3)cs2)C1,–,"inconclusive: 31.6 µM [inhibitor, single point]",–
CNC(=O)[C@H]1C[C@H](Oc2ccccc2)CN1Cc1c[nH]c2ccc(OC)cc12,–,"inconclusive: 0.251 µM [inhibitor, full curve, poor fit]",–

SMILES,"activity, negative = inhibition",Potency,outcome
CN1CCCC1c1nc(C2CN(S(=O)(=O)c3ccc(C#N)cc3)C2)no1 (centres undefined),–,"inconclusive: 12.6 µM [inhibitor, partial curve, poor fit]",–
CCC(=O)Nc1cnc(-c2ccc(C)cc2)nc1,–,"inconclusive: 5.01 µM [inhibitor, partial curve, poor fit]",–
O=C(NCc1c[nH]c2ncccc12)c1ccccc1Cl,–,"inconclusive: 31.6 µM [inhibitor, single point]",–
CCC(=O)N1CCN(c2nc3c(s2)CC(C(=O)Nc2ccc4c(c2)OCO4)CC3)CC1 (centres undefined),–,"inconclusive: 1.26 µM [inhibitor, partial curve, poor fit]",–
COc1ccc(C)cc1NC(=O)Cn1cccc1-c1nc(-c2ccccc2)no1,–,"inconclusive: 6.31 µM [inhibitor, partial curve, poor fit]",–
Cc1noc(C2CC3(CCN(C(=O)c4cccn4C)CC3)CN2C)n1 (centres undefined),–,"inconclusive: 0.398 µM [inhibitor, full curve, poor fit]",–
Cc1cc(N2CCN(C)CC2)nc2ccc(NC(=O)c3ccccc3F)cc12,–,"inconclusive: 12.6 µM [inhibitor, single point]",–
O=C(c1cccc(F)c1)N1CCN(c2nnc3ccc(Cl)cn23)CC1,–,"inconclusive: 8.91 µM [inhibitor, partial curve, poor fit]",–
CCOCCCNC(=O)C1CCN(c2nc3ccc(Cl)cc3[nH]2)CC1,–,–,inactive
COc1ccc(CN2CCc3nc(N4CCN(c5ccc(F)cc5)CC4)ncc3C2)c(OC)c1OC,–,active: 11.2 µM,–
O=C(N[C@@H]1CN(Cc2ccc3cc[nH]c3c2)C[C@H]1CO)c1ccccc1,–,"inconclusive: 17.8 µM [inhibitor, single point]",–
Cc1ccc(NC(=O)N2CCC(OC3CCN(S(C)(=O)=O)CC3)CC2)cc1,–,"inconclusive: 3.98 µM [inhibitor, single point]",–
C#CCNC(=O)c1nc(-c2cccc(F)c2)c2cnccn12,–,"inconclusive: 2.24 µM [inhibitor, partial curve, poor fit] and inconclusive: 3.55 µM [inhibitor, partial curve, poor fit]",–
COc1ccc(OC)c(NC(=O)C2CCN(S(=O)(=O)c3c(C)noc3/C=C/c3ccc(C)cc3)CC2)c1,–,"inconclusive: 17.8 µM [inhibitor, single point]",–
CN(Cc1ccccc1)Cc1ccc(-c2ccccc2)cc1,–,"inconclusive: 22.4 µM [inhibitor, single point]",–
CCn1cc(S(=O)(=O)N2CCC3(CC2)N(CCOC)C(=O)CS3=O)cn1 (centres undefined),inactive: 2.64%,–,–
CC1CCCCN1CCCNC(=O)c1sc2ncccc2c1-n1cccc1 (centres undefined),–,"inconclusive: 4.47 µM [inhibitor, partial curve, poor fit]",–
Cc1nn(-c2ccc(C(C)C)cc2)c(C)c1[C@@H]1C=C[C@@H](NC(=O)Nc2ccc(Cl)cc2)C1,inactive: -2.58%,–,–
CCC(C)n1c(=N)c(C(=O)NCc2ccco2)cc2c(=O)n3cc(C)ccc3nc21 (centres undefined),–,"inconclusive: 8.91 µM [inhibitor, single point]",–
Cc1ccsc1C(=O)N[C@@H]1CN(c2ncccn2)C[C@H]1CN(C)C,inactive: 5.23%,–,–
